Assay results reported in the supplement of paper PMC3334620.
Whole data set: some 33,000 sequences, median “E-score (-0.5 to 0.5)” near -0.035, cut for the highest 2% near 0.34. This is one part of the list.

Molecular target: T1, Mot3 (UniProt P54785)
T1 sequence: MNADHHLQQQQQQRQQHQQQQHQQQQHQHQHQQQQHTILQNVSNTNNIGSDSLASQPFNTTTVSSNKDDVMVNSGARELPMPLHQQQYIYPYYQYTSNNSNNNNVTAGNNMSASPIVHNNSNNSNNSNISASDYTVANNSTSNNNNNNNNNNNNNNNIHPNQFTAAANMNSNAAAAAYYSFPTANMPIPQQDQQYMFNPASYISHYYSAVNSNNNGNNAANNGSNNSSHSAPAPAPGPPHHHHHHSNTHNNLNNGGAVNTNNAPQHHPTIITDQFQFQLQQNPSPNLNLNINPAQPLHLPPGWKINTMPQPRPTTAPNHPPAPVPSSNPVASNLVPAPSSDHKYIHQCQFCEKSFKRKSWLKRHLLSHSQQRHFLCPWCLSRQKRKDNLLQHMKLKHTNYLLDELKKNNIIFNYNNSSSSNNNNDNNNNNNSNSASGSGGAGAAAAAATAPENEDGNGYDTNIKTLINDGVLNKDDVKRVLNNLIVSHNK
Test: PBM E-score (8-mer binding enrichment) (E-score (-0.5 to 0.5)); higher = stronger / more preferred TF binding; most listed sequences are background and not binding sites
Settings: protein concentration: 200 nM; construct: GST-full length
Description: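 Universal 'all 10-mer' protein binding microarrays (Agilent AMADID 015681) probed with GST-tagged S. cerevisiae TFs (full-length or DBD) made by in vitro transcription/translation (PURExpress), about 100-200 nM. Bound TF was detected with fluorescent anti-GST. Each ungapped 8-mer (which stands for itself and its reverse complement) is scored by the PBM enrichment score (E-score), a modified Wilcoxon-Mann-Whitney statistic from -0.5 to +0.5, computed with the Universal PBM Analysis Suite. Scale: above 0.35 generally sequence-specific binding.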

Sequence | PBM E-score
TGAGTACA | 0.153
ATAAGCAA | 0.0348
CTCCCTGC | -0.379
ATTGCACG | 0.252
ACACCTCG | -0.0776
GAGGACGA | -0.167
GCAGGAAA | 0.451
TGATGAAA | 0.179
CTCTCTCC | -0.221
GTGCGAGA | 0.021
CGGTCGAG | -0.0964
CGAAGAAC | 0.119
AGTCTCTA | -0.102
AATTAGTA | 0.196
CCGGTAGC | -0.28
CTCAGTTA | -0.059
AATGTATA | 0.214
GCATGGAA | -0.0627
CAGCGTTC | 0.0493
AGAAACCT | 0.0434
ACACCGAA | -0.0055
AGCGTCTA | -0.142
GTCCGTCA | -0.0583
ACTGGACA | -0.193
GACCGAGC | -0.227

Sequence | PBM E-score
ACTACTCT | 0.0207
ACGTGACA | 0.18
ACTCAATA | 0.0994
GAATCGAA | 0.122
CATGTACG | 0.239
CAGTCAGC | -0.00114
CTTCAAAA | 0.031
AAAATGGA | 0.119
AATAGGAC | 0.0837
AATCGTAC | 0.0321
ATAGTATA | 0.0519
GCAATAAC | 0.0995
GACCGACA | -0.125
GCTTTATA | -0.0653
AGTGTCAC | -0.136
AACACTAT | 0.146
GGATGACC | -0.282
AGAGTAAG | 0.0887
CCGTGCAA | 0.125
ATGAAACA | 0.137
TACAACTA | 0.0111
AGCAGCAC | -0.117
GACCAGCC | -0.26
CTGTCGTC | -0.202
AGGGGTCG | 0.0904

Sequence | PBM E-score
CTGCTGAA | 0.0926
ACAGAAAG | 0.0448
CTCAAAGA | 0.0629
ATATGCAT | -0.0664
AGCACATG | 0.182
CAGGTCCC | -0.0883
GTATAGTA | 0.00756
AGAGTGTC | -0.123
ACGGCTAA | -0.125
GCAGTCGA | -0.116
TAACTTAA | 0.194
CGCGCCCA | -0.275
TATCAACA | 0.284
GGCGGTGA | -0.0878
ACCTTTAC | 0.226
GAAATAAC | 0.167
CACGAGTG | 0.0755
AACAGTGC | 0.0841
CTTAATAA | 0.0282
GAGACAAA | -0.105
ACCGGACG | 0.0928
CGTATTGA | 0.0966
AAGAATGC | -0.117
ACCCTCCG | -0.245
CTGGTAGC | -0.0556

Sequence | PBM E-score
CATAGTCG | 3e-05
ATATGGAA | -0.226
CGTCAAAA | 0.163
GTGGTAAC | 0.166
AGCGCTTG | -0.185
GAATATAC | 0.0313
CGATTGGA | -0.127
GTCGTCAA | -0.0783
ATGAAGTA | -0.0752
AGTTCAGC | -0.141
CCTCACAA | 0.087
AATCTCGT | -0.0741
TAAAAATA | 0.276
AACAACAG | 0.24
CAAGGACA | 0.0403
AATCGACG | -0.053
ATATCTTG | 0.0756
ACTATAAA | 0.0694
GGGCACTA | 0.0732
ATTACAGG | 0.359
ATGACAGA | 0.0811
AACTACGT | 0.191
GTTAGCCA | -0.136
ACATATAA | 0.275
CGCAATAA | 0.025

Sequence | PBM E-score
ATGTGTGC | 0.0138
CTTGCGGA | -0.223
TAGTGCAA | 0.0916
CATAACGA | -0.0195
AAGGGAAC | -0.0894
ACGGCCGT | -0.211
GGACCGAA | 0.0614
ATCTAAGA | -0.0648
ACGTAACA | 0.262
GAGGGACC | -0.298
CTTAAGTC | -0.081
CAAATCGC | -0.211
CAACAGCG | -0.106
AACGCCCT | 0.00584
ACGCTCGG | -0.194
CGGAGGAG | -0.0709
ATTATACA | 0.215
CCGAACCG | -0.103
AGCGACAT | 0.158
AAAACGAT | 0.0399
CAAGGAGA | -0.116
AGTTGGTC | -0.0907
ATTCGAAA | -0.0272
GGATGCAC | -0.183
GCCGGCAC | -0.00786

Sequence | PBM E-score
GGGGCCAC | -0.443
CCGTGCCA | -0.255
GGCAAAAC | 0.075
CACGAAAC | 0.103
TCATCCGA | -0.0862
ACGATATA | 0.147
CACAGAAG | -0.00641
CCTCCAAC | -0.0141
ATATAAGC | -0.111
TAATGGGA | -0.123
ACATGCTC | 0.293
TAGCAGCA | -0.149
CCGACGCG | -0.13
GAAATTTA | 0.165
ATAAAAGG | 0.069
TCTATTAA | 0.0827
AGTCCAAG | -0.0471
GGAAAGAC | -0.0213
GCAATACC | 0.202
GCTGGTGA | -0.0211
CCTAAGCG | -0.0682
AGGACAAC | -0.00249
GCGACCTA | -0.0836
GGAAGAAC | 0.0589
AATGTCGA | 0.15

Sequence | PBM E-score
CGTTCGAG | 0.155
ACCACGGC | -0.108
AGGAGTCA | -0.105
CGACGACA | -0.0456
ATCCTCCA | -0.1
CTATAGGA | 0.093
TCTGTTCA | -0.014
GCTGTGAC | -0.128
ACGACTAC | 0.111
CTACTACA | 0.247
CGATTGAG | -0.267
ACTATGAG | -0.173
GAATTATA | 0.0628
CAACAGTG | -0.0633
ACACCCCA | -0.0411
AAATGCGA | -0.0132
GGCGACGA | -0.101
TTCATAAA | -0.151
ACAGGAAC | 0.466
CGGGCTTC | -0.251
CCGCCTCG | -0.0851
AGGTTGTA | 0.248
